Test results as given in PubChem BioAssay (NCATS).
Values joined by “and” are separate entries in the source; they are usually repeats but may differ in a detail not shown here. Identical values can stand only once. The shares of active, inactive and inconclusive entries below differ from those in the screen. Where the call is inconclusive, the potency comes from a doubtful curve fit. Active and inactive are the calls of the source. Calls follow the shape of the dose curve; as a rule, active = well fitted cell-killing curve with a large enough effect; inconclusive = small, poorly fitted or top-dose-only effect; inactive = no such curve, though single readings can be large or run the other way.
Potency is read from the fitted curve at half-maximal effect; tags tell the direction and shape of the fitted curve.

Experiment: qHTS of pediatric cancer cell lines to identify multiple opportunities for drug repurposing: Primary screen for LAN-5 cells (AID 1347100)
Conditions: LAN-5 neuroblastoma viability, CellTiter-Glo luminescence, 48 h; series mostly up to 46 µM; activity change, negative = cytotoxic: at the top concentration
Description: Drug repurposing or repositioning has been offered as a strategy for drug development in oncology programs. This approach has special potential for childhood cancers and other rare or orphan diseases, where the expected return on new drug development has been a disincentive to pharmaceuticals.
In this project we exploit the poly-pharmacology of drugs to discover new indications via phenotypic screening of a panel of 19 well-characterized cell lines derived from solid tumors seen in children and adolescents. The goal is to identify approved drugs with previously unrecognized anticancer properties that has the potential to reveal new mechanisms and biological processes involved in carcinogenesis or drug resistance. We employed a titration-based paradigm (quantitative high-throughput screening or qHTS), where all compounds were tested at multiple concentrations for their effect on cell viability. Concentration-response curves (CRCs) were derived directly from the primary screen, and both potency and efficacy values were used to identify compounds with robust bioactivity profiles. We screened the NIH Chemical Genomics Center (NCGC) Pharmaceutical Collection (NPC) and Mechanism Interrogation Plate (MIPE) small molecule collections of approved and investigational compounds against these cell lines; and measured metabolically active cells after 48 hours of compound treatment as a proxy for cell viability.
Assay Submitter: Nathalia J. Martinez, National Center for Advancing Translational Sciences, National Institutes of Health, Rockville, MD, USA; email: natalia.martinez@nih.gov
[1] Shen, M et al. Quantitative high-throughput phenotypic screening of pediatric cancer cell lines identifies multiple opportunities for drug repurposing. Oncotarget 2017 Dec 19;9(4):4758-4772. PMID 29435139.
The cells were obtained from University of North Carolina (UNC), Pediatric Preclinical Testing Program (PPT), and Coriell Institute (CI).
qHTS cell viability assay:
Cells were assayed in growth media at a density of 500-1,000 cells/well. Five microliters of cells were dispensed into 1,536-well, white, solid-bottom, TC-treated plates (Greiner Bio One) using a multidrop dispenser and incubated at 37 degrees C, 5% CO2, under a humidified atmosphere for 5 hours. Twenty-three nanoliters of compounds and controls (neutral control DMSO or positive control bortezomib at final concentration of 2.3 µM) were subsequently transferred by Kalypsys pintool. For primary screens, the MIPE collection was tested at 11-point dilutions (final concentrations range from 0.78 nM to 46 µM) and the NPC collection at 8-point dilutions (final concentrations range from 0.59 nM to 46 µM). Compounds tested in follow-up screens were assayed at 11-point dilutions. Cells were incubated for 48 hours, followed by addition of 3 µL of CellTiter-Glo (Promega). After a 15 min incubation at room temperature, samples were analyzed for luminescence intensity using a ViewLux High-throughput CCD imager equipped with clear filters.
With `Nc1nc(=O)n([C@H]2C[C@H](O)[C@@H](CO)O2)cc1F` the Potency was inconclusive: 0.59 µM [cytotoxic, full curve]. For `CN(C)C/C=C(/c1ccc(Br)cc1)c1cccnc1`, the “activity change, negative = cytotoxic” value was inactive: -2.18%. In the case of `CC(C)(C)c1ccc(C(O)CCCN2CCC(C(O)(c3ccccc3)c3ccccc3)CC2)cc1` (stereo not given), the Potency is reported as inconclusive: 29.9 µM [cytotoxic, single point]. For `CC(C)C(=O)c1c(C(C)C)nn2ccccc12`, the “activity change, negative = cytotoxic” value was inactive: 13.8%. For `CC(C(=O)O)c1cccc(Oc2ccccc2)c1` (stereo not given), the “activity change, negative = cytotoxic” value was inactive: 8.42%. For `CNC1(C)C2CCC(C2)C1(C)C` (stereo not given), the “activity change, negative = cytotoxic” value was inactive: 1.46%. With `C[N+](C)(C)CC[N+]1(C)Cc2c(Cl)c(Cl)c(Cl)c(Cl)c2C1` the “activity change, negative = cytotoxic” value was inactive: 14.4%. With `CC(COc1ccccc1)NC(C)C(O)c1ccc(O)cc1` (stereo not given) the “activity change, negative = cytotoxic” value was inactive: 2.35%. In the case of `CCCCNC(=O)NS(=O)(=O)c1ccc(N)cc1`, the “activity change, negative = cytotoxic” value is reported as inactive: 10.2%. For `CC(C)NCC(O)c1cc(O)cc(O)c1` (stereo not given), the “activity change, negative = cytotoxic” value was inactive: 8.61%. In the case of `CCCCC(O)/C=C(C)/C=C/C=C/C(=O)N1CCCC1=O` (stereo not given), the “activity change, negative = cytotoxic” value is reported as inactive: 22.2%. In the case of `CN=C(NC#N)Nc1ccc(C2=NNC(=O)CC2C)cc1` (stereo not given), the “activity change, negative = cytotoxic” value is reported as inactive: 4.75%. For `CCCCCCCCCCCCCCCC(=O)O`, the “activity change, negative = cytotoxic” value was inactive: 30.8%. With `CCN[C@H]1CN(CCCOC)S(=O)(=O)c2sc(S(N)(=O)=O)cc21` the “activity change, negative = cytotoxic” value was inactive: 21.1%. For `CC(C)(C)C(=O)OCOP(=O)(COCCn1cnc2c(N)ncnc21)OCOC(=O)C(C)(C)C`, the Potency was inconclusive: 5.96 µM [cytotoxic, partial curve] and active: 16.6 µM. For `CCc1cccc2c(CCO)c[nH]c12`, the “activity change, negative = cytotoxic” value was inactive: 24.1%. For `NC(=O)NC(=O)Cc1ccccc1`, the “activity change, negative = cytotoxic” value was inactive: 1.4%. In the case of `CCOc1ccccc1O[C@H](c1ccccc1)[C@H]1CNCCO1`, the “activity change, negative = cytotoxic” value is reported as inactive: -1.3%. With `Oc1c(Cl)cc(Cl)cc1Sc1cc(Cl)cc(Cl)c1O` the Potency was inconclusive: 26.6 µM [cytotoxic, single point]. In the case of `C#C[C@]1(OC(C)=O)CC[C@H]2[C@@H]3CCC4=C[C@@H](OC(C)=O)CC[C@@H]4[C@H]3CC[C@@]21C`, the Potency is reported as inconclusive: 23.7 µM [cytotoxic, single point]. In the case of `CCCCCCCCCCCCCCCCOP(=O)([O-])OCC[N+](C)(C)C`, the Potency is reported as inconclusive: 23.7 µM [cytotoxic, single point]. In the case of `O=C(CO)[C@@H](O)[C@H](O)[C@@H](O)CO`, the “activity change, negative = cytotoxic” value is reported as inactive: 10.3%. For `CCCCOC(=O)CCCCCCCCC(=O)OCCCC`, the “activity change, negative = cytotoxic” value was inactive: 7.24%. With `COc1cc([C@@H]2c3cc4c(cc3[C@@H](O[C@@H]3O[C@@H]5CO[C@@H](c6cccs6)O[C@@H]5[C@H](O)[C@@H]3O)[C@H]3COC(=O)[C@H]23)OCO4)cc(OC)c1O` the Potency was active: 0.0372 µM. For `CC(=O)O[C@H]1CC[C@@]2(C)C(=CC[C@@H]3[C@@H]2CC[C@]2(C)C(C(C)=O)=CC[C@@H]32)C1`, the “activity change, negative = cytotoxic” value was inactive: 7.09%. In the case of `CN1c2cc(O)c(N=NC(N)=O)cc2CC1S(=O)(=O)O` (stereo not given), the “activity change, negative = cytotoxic” value is reported as inactive: -7.75%. For `CCOC(=O)c1cccnc1`, the “activity change, negative = cytotoxic” value was inactive: 24.4%. For `O=C(O)CCCCC(CCSCc1ccccc1)SCc1ccccc1` (stereo not given), the Potency was inconclusive: 23.5 µM [cytotoxic, single point]. With `Cc1c(C)c2c(c(C)c1OC(=O)CCC(=O)OCCO)CC[C@@](C)(CCC[C@H](C)CCC[C@H](C)CCCC(C)C)O2` the Potency was inconclusive: 33.5 µM [cytotoxic, single point]. For `Nc1ccc2c(c1)CN1C(=O)c3ccccc3C1=N2`, the Potency was inconclusive: 11.6 µM [cytotoxic, partial curve]. For `CC[C@H]1CN2CCc3cc(OC)c(OC)cc3[C@@H]2C[C@@H]1C[C@H]1NCCc2cc(OC)c(OC)cc21`, the Potency was active: 0.335 µM. In the case of `O=C1CC2(CCCC2)CC(=O)N1CCCCN1CCN(c2ncccn2)CC1`, the “activity change, negative = cytotoxic” value is reported as inactive: -1.52%. With `CCN(CC)CC(=O)Oc1ccc(NC(C)=O)cc1` the “activity change, negative = cytotoxic” value was inactive: 23.7%. For `CCCCCCOC(=O)NC(=N)c1ccc(NCc2nc3cc(C(=O)N(CCC(=O)OCC)c4ccccn4)ccc3n2C)cc1`, the Potency was inconclusive: 29.9 µM [cytotoxic, single point]. For `CC1(C)S[C@@H]2[C@H](NC(=O)C(C(=O)O)c3ccccc3)C(=O)N2[C@H]1C(=O)O` (stereo not given in full), the “activity change, negative = cytotoxic” value was inactive: 35%. In the case of `C#CCN(C)CCCOc1ccc(Cl)cc1Cl`, the “activity change, negative = cytotoxic” value is reported as inactive: -3.54%. In the case of `COc1c(N2C[C@@H]3CCCN[C@@H]3C2)c(F)cc2c(=O)c(C(=O)O)cn(C3CC3)c12`, the “activity change, negative = cytotoxic” value is reported as inactive: 12.5%. For `CN1CCN(C2=Nc3ccccc3Sc3ccc(Cl)cc32)CC1`, the “activity change, negative = cytotoxic” value was inactive: -1.99%. In the case of `C[C@]12CC[C@@H]3c4ccc(O)cc4CC[C@H]3[C@@H]1C[C@@H](O)[C@@H]2O`, the “activity change, negative = cytotoxic” value is reported as inactive: 3.32%. With `CCN(CC)CCNC(=O)COc1ccc(Cl)cc1` the “activity change, negative = cytotoxic” value was inactive: 4.62%.
